Measured values published in the RNAGym collection of RNA variant scans (doi:10.1073/pnas.2313332121).
Variants at the background level are over-represented here.

B1: TPR 5TU (parent)
chain: GGAUCUUCUCGAUCUAACAAAAAAGACAAAUCUGCCACAAAGCUUGAGAGCAUCUUCGGAUGCAGAGGCGGCAGCCUUCGGUGGCGCGAUAGCGCCAACGUUCUCAACUAUGACACGCAAAACGCGUGCUCCGUUGAAUGGAGUUUAUCAUG

Variants of: B1
Experiment: polymerase ribozyme fitness, log enrichment relative to wild type (log ratio); higher = more active; in vitro selection for triplet polymerase activity
How it was run: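 Mutant libraries for each subunit of a heterodimeric triplet polymerase ribozyme were made by PCR and then transcribed. Each library underwent one round of in vitro selection in triplicate: annealing with a biotinylated primer, the partner subunit and triplets, frozen incubation at −7 °C, gel excision of extended constructs, streptavidin-bead capture and RT-PCR. Input and output libraries were Illumina-sequenced, and only genotypes with ≥10 input reads and ≥1 read per output were kept. Fitness is the logarithm, base 2, of genotype enrichment over wild-type enrichment, computed from inverse-variance-weighted replicate averages.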

Row | Variant | polymerase ribozyme fitness (log ratio)
1 | U77C G88U A147C U148A | ≤ -4.2
2 | U77C G88U C93A A110G A122U | ≤ -4.2
3 | U77C G136U C149G | -4.11
4 | U77G A89G A106C G133A | ≤ -4.2
5 | U77G A89U C95A C114U C125G | ≤ -4.2
6 | U77G A91G | ≤ -4.2
7 | U77G A98G C103A A121G C125A U134C G143C U144G | ≤ -4.2
8 | U77G A107U U144C U145C | ≤ -4.2
9 | U77G A138U | ≤ -4.2
10 | U77G C79G C85G A91U C93G A115G A150G | ≤ -4.2
11 | U77G C85G G136C A137G G143A U146G | ≤ -4.2
12 | U77G C93U | ≤ -4.2
13 | U77G C93U G100U | ≤ -4.2
14 | U77G C93U G117C | ≤ -4.2
15 | U77G C96G C131U A138C U148G | ≤ -4.2
16 | U77G G80A | ≤ -4.2
17 | U77G G84C U148G | ≤ -4.2
18 | U77G G94A G100A A106C G136C G140C | ≤ -4.2
19 | U77G U82A A110C G136A A137U A138U | ≤ -4.2
20 | U78A A91C C125A | ≤ -4.2
21 | U78A A122U U134A | ≤ -4.2
22 | U78A C85G | ≤ -4.2
23 | U78A C93A G94U | -4.16
24 | U78A C93G G133A | ≤ -4.2

Row | Variant | polymerase ribozyme fitness (log ratio)
25 | U78A G80A C95U C108A C125U U146A | ≤ -4.2
26 | U78A G81A C93G A97U U151C | ≤ -4.2
27 | U78A G92A U101C C129A A137C U148A C149U | ≤ -4.2
28 | U78A G133A U139G | ≤ -4.2
29 | U78A U90C | ≤ -4.2
30 | U78C A120U G133U G141A | -3.21
31 | U78C A142U G143U U146C | ≤ -4.2
32 | U78C C87A | ≤ -4.2
33 | U78C C103G A107U | ≤ -4.2
34 | U78C G83A G88C C93U A106U | ≤ -4.2
35 | U78C G92A | -3.78
36 | U78C U127C G128U A138U | ≤ -4.2
37 | U78C U146C | 0.315
38 | U78G A107U C125U | ≤ -4.2
39 | U78G C79G G81U G92C A107U U111A A120C U135G G143C | ≤ -4.2
40 | U78G C79U G94C A115C G143A | ≤ -4.2
41 | U78G C85G U135A A137U A150C | ≤ -4.2
42 | U78G C85U C125U | ≤ -4.2
43 | U78G C87A A98U | ≤ -4.2
44 | U78G C93A | ≤ -4.2
45 | U78G C93G | ≤ -4.2
46 | U78G C93U A98G A142C | ≤ -4.2
47 | U78G C123G | ≤ -4.2
48 | U78G G88U | ≤ -4.2

Row | Variant | polymerase ribozyme fitness (log ratio)
49 | U78G G94U | -3.47
50 | U78G G133C U139C G152U | ≤ -4.2
51 | U78G G141A | ≤ -4.2
52 | U78G U90G G128U C131G | ≤ -4.2
53 | U78G U109C G140C | ≤ -4.2
54 | U78G U111G A113U | ≤ -4.2
55 | C79A A91C | ≤ -4.2
56 | C79A A115C G143C U148C | ≤ -4.2
57 | C79A C87A A119U G126A G133C A142U | ≤ -4.2
58 | C79A C87G | ≤ -4.2
59 | C79A C93A U134A U135A | ≤ -4.2
60 | C79A C93A U146C | ≤ -4.2
61 | C79A C93G | ≤ -4.2
62 | C79A C96G | ≤ -4.2
63 | C79A C96U U101G | ≤ -4.2
64 | C79A C99G | ≤ -4.2
65 | C79A G80A C85G G100U U130A U145C U148G | ≤ -4.2
66 | C79A G80U C85U C96G U102C U104C | ≤ -4.2
67 | C79A G83C | ≤ -4.2
68 | C79A G83C G86U U102G A106C C114U C149A | ≤ -4.2
69 | C79A G83U U134G | ≤ -4.2
70 | C79A G83U U135G G141C | ≤ -4.2
71 | C79A G84A | ≤ -4.2
72 | C79A G84A G92C A107G | ≤ -4.2

Row | Variant | polymerase ribozyme fitness (log ratio)
73 | C79A G84C C87U | ≤ -4.2
74 | C79A G86C G136U A138U | ≤ -4.2
75 | C79A G86U A137C A150G | ≤ -4.2
76 | C79A G88A A113U | ≤ -4.2
77 | C79A G88C C118A U139C A142U | ≤ -4.2
78 | C79A G88U C108G G136U | ≤ -4.2
79 | C79A G133A G140C C149U | ≤ -4.2
80 | C79A G143A U144G | ≤ -4.2
81 | C79A U109C | ≤ -4.2
82 | C79A U139C A142G U148A | ≤ -4.2
83 | C79G A89C | ≤ -4.2
84 | C79G A91G | ≤ -4.2
85 | C79G C85A | ≤ -4.2
86 | C79G C85A A138G U148A | ≤ -4.2
87 | C79G C87U G100U | -2.91
88 | C79G C95U A150G | ≤ -4.2
89 | C79G C103U G141A | ≤ -4.2
90 | C79G C105U G128U | ≤ -4.2
91 | C79G C114U | ≤ -4.2
92 | C79G C132A A142U | ≤ -4.2
93 | C79G G83U G84A C99A U127A C129U G136U | ≤ -4.2
94 | C79G G84U | ≤ -4.2
95 | C79G G84U C132U | ≤ -4.2
96 | C79G G86A | ≤ -4.2

Row | Variant | polymerase ribozyme fitness (log ratio)
97 | C79G U82A U101A A110G | ≤ -4.2
98 | C79G U82C C87U | ≤ -4.2
99 | C79G U134C U146C | -4.11
100 | C79G U148A | ≤ -4.2
101 | C79U A91C | -4.02
102 | C79U A91U C125A | ≤ -4.2
103 | C79U A97G | -3.02
104 | C79U A98G | -3.44
105 | C79U C85A A142C | ≤ -4.2
106 | C79U C85G C105G | ≤ -4.2
107 | C79U C85G U101G | ≤ -4.2
108 | C79U C85U A89U C118A C131A | ≤ -4.2
109 | C79U C85U A97U | ≤ -4.2
110 | C79U C87A U139A | ≤ -4.2
111 | C79U C87G C93A G141U U146G G152A | ≤ -4.2
112 | C79U C87G U90G C95U | ≤ -4.2
113 | C79U C93A A98U A122U | -4
114 | C79U C96A A115U A122G G126A | ≤ -4.2
115 | C79U C96G A119G | ≤ -4.2
116 | C79U C103G | ≤ -4.2
117 | C79U C114G G140A | ≤ -4.2
118 | C79U G84C | ≤ -4.2
119 | C79U G84U | ≤ -4.2
120 | C79U G86A C96U C149G | ≤ -4.2

Row | Variant | polymerase ribozyme fitness (log ratio)
121 | C79U G88A C118U U145G | ≤ -4.2
122 | C79U G140U | -3.68
123 | C79U U90A A137G | ≤ -4.2
124 | C79U U90C U104G U111G | ≤ -4.2
125 | G80A A89U C95U A120G | -1.11
126 | G80A A91C C93U A115G A120G | ≤ -4.2
127 | G80A A142U U144C | -3.55
128 | G80A C87G A107G | ≤ -4.2
129 | G80A C93G C96U | -3.96
130 | G80A C93U C149G | ≤ -4.2
131 | G80A C93U U102A | -3.01
132 | G80A C96G | -1.11
133 | G80A C99G | -1.02
134 | G80A C99G U127C | -2.19
135 | G80A G83A A106U C116G U139C G143A | ≤ -4.2
136 | G80A G84A | -0.264
137 | G80A G84A A120G | -1.33
138 | G80A G84U U127G | ≤ -4.2
139 | G80A G88C A89G C93U C105U C116A | ≤ -4.2
140 | G80A G88U G94A G143C | ≤ -4.2
141 | G80A G126A | -0.283
142 | G80C C85A C96G U102A | ≤ -4.2
143 | G80C C85A C99A C131A | ≤ -4.2
144 | G80C C85G U151G | ≤ -4.2

Row | Variant | polymerase ribozyme fitness (log ratio)
145 | G80C C85U A137U A147C | ≤ -4.2
146 | G80C C85U C116A U127C U135A | ≤ -4.2
147 | G80C C87A C93U U146C | ≤ -4.2
148 | G80C C87G G100U C118U G133U | ≤ -4.2
149 | G80C C87U | ≤ -4.2
150 | G80C C87U C118A | ≤ -4.2
151 | G80C C87U U102G G124C U130A | ≤ -4.2
152 | G80C C93G | -4.2
153 | G80C C93G A115C U144C | ≤ -4.2
154 | G80C C93G U127G A150G | ≤ -4.2
155 | G80C C96U G141C U146C | ≤ -4.2
156 | G80C G86C U139A | ≤ -4.2
157 | G80C G86U | -3.37
158 | G80C G86U C99G U109G U127G G141C | ≤ -4.2
159 | G80C G86U C125G A137C | ≤ -4.2
160 | G80C G92C G128A U146A | ≤ -4.2
161 | G80C G128C U139G G140C | ≤ -4.2
162 | G80C G128U | ≤ -4.2
163 | G80C U90G | ≤ -4.2
164 | G80U A91C A106U C132G | ≤ -4.2
165 | G80U A91C A122U G136A G141C | ≤ -4.2
166 | G80U A110G | -4.05
167 | G80U C85U A91U G128C | ≤ -4.2
